In publication PMC5386588 one finds binding data, which are given here for four molecules.

Chains of the proteins cited; added tags and fusions are not shown. Lines headed by an entry give the natural chain unless they say otherwise; changes in a name come on top. Residues count along the entry.
UniProt Q9Y5X4: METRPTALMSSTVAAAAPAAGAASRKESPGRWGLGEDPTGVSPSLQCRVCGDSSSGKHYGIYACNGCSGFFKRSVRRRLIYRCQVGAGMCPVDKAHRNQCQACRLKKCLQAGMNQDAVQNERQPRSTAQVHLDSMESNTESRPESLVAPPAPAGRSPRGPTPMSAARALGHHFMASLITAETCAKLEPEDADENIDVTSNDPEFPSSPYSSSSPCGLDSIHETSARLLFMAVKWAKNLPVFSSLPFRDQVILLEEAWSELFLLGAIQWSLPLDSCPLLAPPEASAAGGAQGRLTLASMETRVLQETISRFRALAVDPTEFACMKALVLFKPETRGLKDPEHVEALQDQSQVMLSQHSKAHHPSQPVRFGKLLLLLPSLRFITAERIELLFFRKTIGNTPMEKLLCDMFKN
LexA-PNR LBD 192-399 mutant lacking the AF2 helix (ΔH12): residues 192-399 of Q9Y5X4
UniProt P37231: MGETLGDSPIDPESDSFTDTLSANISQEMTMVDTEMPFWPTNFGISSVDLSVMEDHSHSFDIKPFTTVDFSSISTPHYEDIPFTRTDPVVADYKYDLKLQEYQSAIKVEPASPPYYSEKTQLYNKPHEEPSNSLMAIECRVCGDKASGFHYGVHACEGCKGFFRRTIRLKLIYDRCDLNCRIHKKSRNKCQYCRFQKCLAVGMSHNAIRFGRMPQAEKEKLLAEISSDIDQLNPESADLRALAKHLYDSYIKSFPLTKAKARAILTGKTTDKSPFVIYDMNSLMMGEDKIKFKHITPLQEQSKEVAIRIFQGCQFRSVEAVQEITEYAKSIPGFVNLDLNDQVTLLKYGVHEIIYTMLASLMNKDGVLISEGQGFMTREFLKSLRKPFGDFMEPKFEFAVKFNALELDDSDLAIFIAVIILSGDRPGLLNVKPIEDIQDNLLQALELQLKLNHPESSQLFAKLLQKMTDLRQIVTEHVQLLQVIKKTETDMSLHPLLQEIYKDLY
UniProt Q9Y466: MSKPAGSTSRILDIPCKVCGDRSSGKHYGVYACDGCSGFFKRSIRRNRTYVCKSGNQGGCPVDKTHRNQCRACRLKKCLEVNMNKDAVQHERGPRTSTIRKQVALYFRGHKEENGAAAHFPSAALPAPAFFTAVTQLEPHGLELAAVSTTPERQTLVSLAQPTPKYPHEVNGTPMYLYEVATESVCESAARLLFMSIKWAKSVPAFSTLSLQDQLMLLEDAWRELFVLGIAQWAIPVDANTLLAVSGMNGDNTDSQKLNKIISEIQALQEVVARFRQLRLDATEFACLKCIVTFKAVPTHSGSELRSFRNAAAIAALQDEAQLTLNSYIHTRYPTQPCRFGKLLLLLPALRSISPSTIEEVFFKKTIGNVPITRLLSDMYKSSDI

Read-outs that look alike come from different tables or passages of the source. These are yes or no findings as the source states them, for the method shown. For part of these data: In cells and extracts the contact can be indirect. Some results given as binding are weak or reduced against the parent protein; the word gives no strength.

The target of assay [1] is endogenous PNR (human (endogenous in adult human retinal tissue and MDA-MB-468)) (UniProt Q9Y5X4). Briefly: co-IP; endogenous proteins of the breast cancer cell line MDA-MB-468 (Supplementary Figure S4).
The target is the same in assay [2]. Put plainly: co-IP; cell-free extract of adult human retinal tissue; PNR immunoprecipitated, western blots for PPARγ and TLX. (In general: Immunoblotting shows a protein as a band on a membrane.)
For assay [3], the target named is PNR hinge-LBD (131–410) (human) (UniProt Q9Y5X4). Put plainly: two-hybrid; S. cerevisiae L40 co-expressing a LexA-DBD fusion and a VP16 AAD fusion; β-galactosidase activity of cell-free extracts, three clones; result told without exogenous ligand or alike with and without it (rosiglitazone).
In assay [4] the target is LexA-PNR LBD 192-399 mutant lacking the AF2 helix (ΔH12) (human) (UniProt Q9Y5X4). Described as above.
The target in assay [5] is PNR hinge-LBD (131–410) (human) (UniProt Q9Y5X4). The assay is described as above. The source holds these as a separate data set.

Consider “endogenous PPARγ (from UniProt P37231 1-505)”, for which the binding result in assay [1] and in assay [2] was “binds” throughout. With “PNR hinge-LBD (131–410) (from UniProt Q9Y5X4 131-410) (domain or fragment)”, the binding result in assay [3] is “binds”. For the molecule “endogenous TLX (from UniProt Q9Y466 1-385)”, the binding result in assay [2] is given as “no binding”.

B1: AAD-BCL11A 1-376 containing the RID motif (domain or fragment, UniProt Q9H165 1-376)
chain: MSRRKQGKPQHLSKREFSPEPLEAILTDDEPDHGPLGAPEGDHDLLTCGQCQMNFPLGDILIFIEHKRKQCNGSLCLEKAVDKPPSPSPIEMKKASNPVEVGIQVTPEDDDCLSTSSRGICPKQEHIADKLLHWRGLSSPRSAHGALIPTPGMSAEYAPQGICKDEPSSYTCTTCKQPFTSAWFLLQHAQNTHGLRIYLESEHGSPLTPRVGIPSGLGAECPSQPPLHGIHIADNNPFNLLRIPGSVSREASGLAEGRFPPTPPLFSPPPRHHLDPHRIERLGAEEMALATHHPSAFDRVLRLNPMAMEPPAMDFSRRLRELAGNTSSPPLSPGRPSPMQRLLQPFQPGSKPPFLATPPLPPLQSAPPPSQPPVKS
Turning to B1, the binding result in assay [4] was “no binding”; in assay [5] it was “binds”.
